Experimental data taken from PubChem BioAssay AID488969 (Vanderbilt High Throughput Screening Facility, 2010).
In all, about 110,000 compounds were measured (“z-score”: median about -0.1, highest 2% from about 2 on). The list shows a part of the results.

Molecular target: Metabotropic glutamate receptor 8 (Rattus norvegicus) (UniProt P70579)
Assay: mGluR8 Gi/Go-coupled signaling modulation – cell-based, rat, thallium flux, HTS, primary screen (AID 488969)
Conditions: HEK293 rat mGluR8, GIRK (G protein-gated inwardly rectifying potassium channel) thallium flux, FluoZin2; at 10 µM; stronger effect = higher value; submaximal glutamate (EC20) added with thallium

UniProt P70579, sequence (P70579 whole entry, looked up): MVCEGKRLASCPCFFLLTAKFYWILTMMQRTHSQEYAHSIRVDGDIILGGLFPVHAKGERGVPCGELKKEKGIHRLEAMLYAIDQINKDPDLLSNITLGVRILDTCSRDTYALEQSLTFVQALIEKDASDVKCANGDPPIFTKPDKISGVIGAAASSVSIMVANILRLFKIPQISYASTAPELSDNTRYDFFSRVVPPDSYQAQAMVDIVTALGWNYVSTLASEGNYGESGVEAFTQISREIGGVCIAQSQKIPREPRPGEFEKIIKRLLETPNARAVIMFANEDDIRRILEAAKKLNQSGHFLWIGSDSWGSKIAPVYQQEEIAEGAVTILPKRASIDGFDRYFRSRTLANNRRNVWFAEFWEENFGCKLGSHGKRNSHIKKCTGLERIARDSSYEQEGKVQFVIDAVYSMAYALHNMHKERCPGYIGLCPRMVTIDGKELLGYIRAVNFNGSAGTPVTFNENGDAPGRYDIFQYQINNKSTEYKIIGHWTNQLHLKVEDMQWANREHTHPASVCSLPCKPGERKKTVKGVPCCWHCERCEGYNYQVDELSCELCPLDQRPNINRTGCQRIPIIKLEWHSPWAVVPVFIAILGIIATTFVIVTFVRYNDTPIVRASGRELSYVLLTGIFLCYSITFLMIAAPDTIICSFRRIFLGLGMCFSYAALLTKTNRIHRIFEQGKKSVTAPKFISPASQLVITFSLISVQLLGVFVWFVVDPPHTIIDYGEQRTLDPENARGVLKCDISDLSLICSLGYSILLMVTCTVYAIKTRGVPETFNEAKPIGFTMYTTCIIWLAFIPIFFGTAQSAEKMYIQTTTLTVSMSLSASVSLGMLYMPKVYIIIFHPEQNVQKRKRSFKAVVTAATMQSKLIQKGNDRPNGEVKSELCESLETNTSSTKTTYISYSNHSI

| Structure (SMILES) | z-score |
| --- | --- |
| Cc1noc(/C=C/N(C)C)c1S(=O)(=O)N1CCCC(C(=O)NCc2ccco2)C1 (stereo not drawn) | -0.593 |
| COc1ccccc1N1CCN(C(=O)CSc2nc3ccccc3o2)CC1 | -0.0579 |
| Cc1ccc(NC(=S)NCC23C=CC(O2)C2C(=O)N(c4ccc(C)cc4)C(=O)C23)cc1 (stereo not drawn) | -0.0336 |
| O=C(NCCNc1ccc([N+](=O)[O-])cc1C(F)(F)F)c1ccc(F)cc1 | 0.231 |
| COc1ccc(CCn2c(C)cc(C(=O)CSc3nnnn3-c3ccccc3)c2C)cc1 | 0.292 |
| CCNC(=O)COc1ccc(Br)cc1Cl | 0.307 |
| CCCOc1ccc(-c2nnn(CC(=O)c3ccc4c(c3)OCCO4)n2)cc1 | 0.402 |
| CCc1nc(SCC(=O)NCCc2ccccc2)c2oc3ccccc3c2n1 | -0.0955 |
| CC(=O)Nc1ccc(S(=O)(=O)N2CCN(CCCOc3cc(C)ccc3C)CC2)cc1 | 0.202 |
| O=C(Cn1cnc2c(cnn2-c2ccccc2)c1=O)N1CCCc2ccccc21 | -0.296 |
| COc1ccc(C(CC(=O)N2CCOCC2)C(C)C)cc1 (stereo not drawn) | -0.118 |
| Cc1cccc(NC(=S)N2CCC(c3nc4ccccc4o3)CC2)c1C | -0.413 |
| O=C(O)c1ccc(S(=O)(=O)c2ccc3c(c2)C(=O)N(CC2CCCO2)C3=O)cc1 (stereo not drawn) | -0.2 |
| Cc1cc(Br)cc(Cl)c1OCC(=O)NC(=O)NCc1ccccc1 | -0.59 |
| CCCc1[nH][nH]c(=O)c1C(c1ccc(Cl)cc1)C(C#N)C#N (stereo not drawn) | -0.329 |
| CC1CCN(S(=O)(=O)c2ccc3c(c2)c(=O)c(C(=O)NC2CCCC2)cn3C)CC1 | -0.297 |
| Cn1c(=O)c(/C=C/c2ccccc2)nc2ccccc21 | -0.208 |
| Cc1ccc(CNC(=O)CS(=O)CC(=O)O)cc1 (stereo not drawn) | -0.173 |
| CCOC(=O)CSc1nnnn1-c1cc(OC)c(Cl)cc1OC | -0.483 |
| CCCCCCc1ccc(OCC(=O)OC)cc1OCC(=O)OC | -0.166 |
| O=C(CN1CCSCC1)N1CCc2[nH]c3ccc(Br)cc3c2C1 | 0.123 |
| COCCNC(=O)COC(=O)/C=C/c1c(C)nn(Cc2ccc(Cl)cc2Cl)c1Cl | -0.23 |
| Cc1ccc(-n2c(C)cc(/C=N/NC(=O)c3ccncc3)c2C)c(C)c1 | -0.298 |

| Structure (SMILES) | z-score |
| --- | --- |
| COc1ccc(CCN(Cc2cc3cccc(C)c3[nH]c2=O)C(=O)NC2CCCCC2)cc1OC | -0.325 |
| CCCCn1cnc2c1c(=O)n(C)c(=O)n2C | -0.0999 |
| CCc1nnc(N2C(=O)c3ccc(Oc4ccc([N+](=O)[O-])cc4)cc3C2=O)s1 | 0.0564 |
| O=C(CN1CCOCC1)Nc1ccccc1C(=O)O | -0.257 |
| COc1ccc(S(=O)(=O)NCCC(C)C)cc1OC | -0.892 |
| C=CCn1c(SCC(=O)NCc2ccc3c(c2)OCO3)nc2scc(-c3ccc(F)cc3)c2c1=O | -0.0818 |
| OC(CNC1CCCCC1)COCCOc1ccc(Br)cc1 (stereo not drawn) | 0.263 |
| COC(=O)c1cc(COC(=O)c2ccc3ccccc3n2)oc1C | -0.698 |
| CCOC(=O)c1c(C)c(C(=O)NCc2cccs2)c(C)n1CC | -0.679 |
| CCC(C)NC(=O)c1ccc([N+](=O)[O-])c(Cl)c1 (stereo not drawn) | -0.0959 |
| O=C(O)c1cnc2ccccc2n1 | 0.243 |
| N#Cc1ccc(OCC(=O)OCC(=O)Nc2cc(C(F)(F)F)ccc2N2CCOCC2)cc1 | -0.0127 |
| Cc1cc(C(F)(F)F)n2ncc(C(=O)O)c2n1 | -0.514 |
| O=C(/C=C\Nc1cccc(F)c1)c1cccs1 | 0.253 |
| COc1ccccc1-c1c(C(F)(F)F)oc2cc(OCC(=O)Nc3ccccc3C(F)(F)F)ccc2c1=O | -0.175 |
| CCOC(=O)c1c(N)nn(C(=O)C(C)(C)C)c1-c1ccccc1 | 0.205 |
| O=C(NN1C(=O)C2C3c4ccccc4C(c4ccccc43)C2C1=O)c1ccccc1 (stereo not drawn) | 0.897 |
| CC(=O)N(NC(=O)c1ccccc1Cl)C1CC(=O)N(c2ccc(C)cc2)C1=O (stereo not drawn) | -0.133 |
| CCCOC(=O)/C(C(N)=NCc1ccccc1)=C(\O)OCCC | -0.245 |
| CS(=O)(=O)N1CC(C(=O)NC2CC2)Oc2ccc(Cl)cc21 (stereo not drawn) | -0.141 |
| Cc1ccc(-c2nnc(Nc3ccc4c(c3)nc(C)n4C)c3ccccc23)cc1 | -0.181 |
| O=C(NCC1COc2ccccc2O1)C1CCCN(S(=O)(=O)c2cccc3cccnc23)C1 (stereo not drawn) | 0.963 |
| COc1ccc(S(=O)(=O)N(C)c2ccc(C(=O)N3CCC(C(N)=O)CC3)cc2)cc1 | 0.0603 |

| Structure (SMILES) | z-score |
| --- | --- |
| COc1ccccc1OCC(=O)OCn1c(SC)nnc(C)c1=O | -0.13 |
| COc1ccc(C(=O)Nc2oc(-c3ccccc3)c(-c3ccccc3)c2C#N)cc1OC | 0.159 |
| O=C(NCc1ccco1)C(c1ccc(F)cc1)N(CC1CCCO1)C(=O)Cn1nnc2ccccc21 (stereo not drawn) | -0.299 |
| CN(CC(=O)NCCN1CCN(Cc2ccccc2)CC1)S(=O)(=O)c1cccc2nsnc12 | -0.0478 |
| COC(=O)c1ccc(CSc2nnc(CNC(=O)c3ccccc3F)o2)o1 | -0.0532 |
| CCC(C)Sc1nc2ccccc2c(=O)[nH]1 (stereo not drawn) | 0.337 |
| Cc1ccc(C(=O)CSc2nc3ccccc3c(=O)[nH]2)cc1 | -0.343 |
| Cn1cc([N+](=O)[O-])c(C(=O)Nc2ccc3c(c2)OCCO3)n1 | 0.661 |
| CCC(C)NC(=O)CN(c1ccc2c(c1)OCO2)S(=O)(=O)c1c(C)n[nH]c1C (stereo not drawn) | 0.0816 |
| Cc1ccc2[nH]c(-c3ccccc3)c(CN3CCN(C)CC3)c(=O)c2c1 | -0.0794 |
| CC(C)C(NC(=O)CN1C(=O)c2ccccc2S1(=O)=O)C(C)C | -0.268 |
| COC(=O)C1=C(C(=O)c2ccccc2)C(c2ccc(OC)c(OC)c2)Nc2nnnn21 (stereo not drawn) | 0.0695 |
| Cc1sc2nc(C)n(/N=C/c3ccc(O)cc3)c(=O)c2c1C | -0.305 |
| Cc1ccc2[nH]cc(CCNC(=O)Nc3ccccc3)c2c1 | 1.23 |
| CCOC(=O)C1(c2ccccc2)NC(c2ccc(N(C)C)cc2)C2C(=O)N(C)C(=O)C21 (stereo not drawn) | 0.882 |
| CC(=O)c1cnn(-c2nc3c(C)cccc3s2)c1C | -0.111 |
| CC1=C(C(=O)Nc2cccc(C)c2C)C(c2cccs2)NC(=S)N1 (stereo not drawn) | -0.343 |
| Cc1cc(=O)oc(C)c1C(=O)N1CCN(c2ccc(F)cc2)CC1 | 0.465 |
| COCCNC(=O)c1cn(C)c(=O)c2cc(OC)c(OC)cc12 | 0.137 |
| COCCNC(=O)CSc1nc(-c2ccccc2)c(-c2ccccc2)o1 | -0.677 |
| CNc1nc2[nH]c(=O)c3c(c2s1)OC(N)=C(C#N)C3c1cccc(F)c1 (stereo not drawn) | 0.0854 |
| O=C1N=C(N2CCCC2)S/C1=C\c1ccccc1 | -0.162 |
